Out of some 43,000 compounds screened, about 200 (0.47%) were called active. Another 12% or so got no clear call; they are omitted. The call rests on the fitted dose curve; in most records, active means well fitted cell-killing curve with a large enough effect; inconclusive means small, poorly fitted or top-dose-only effect, or effect the other way; inactive means flat fitted curve, though single readings scatter. Some of the results follow.
experiment: Cell viability qHTS assay in S16 Pmp22-F2sN cells; conditions: S16 Pmp22-F2sN Schwann cells (luciferase reporters placed in the Pmp22 gene) viability, CellTiter-Glo, 24 h; series mostly up to 57.5 µM; activity change, negative = cytotoxicity: at the top concentration; further: nearly all actives have a fitted effect of over 65% in size
How it was run: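 CellTiter-Glo counter-screen, qHTS, 1536-well. Cells: S16(c9) Pmp22-F2sN, 500-1,000/well in DMEM + 10% FBS. Cpd 23 nL pin transfer, 24 h, 37C/5% CO2. Read: luminescence, CCD imager.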
On the % scale 0 is the no-effect control and ±100 the full control effect; potency means the concentration at half of the fitted maximal effect.

Row | SMILES | activity change, negative = cytotoxicity | Potency
1 | COc1ccccc1CNC(=O)CCS(=O)(=O)c1ccc2c(c1)oc(=O)n2C | inactive: -9.31% | –
2 | O=C(COc1ccccc1F)Nc1ccc2nc(SCC(=O)N3CCOCC3)sc2c1 | inactive: -2.11% | –
3 | O=S(=O)(c1ccccc1)c1nc(-c2ccc(F)cc2)oc1NCc1ccccc1 | inactive: 18.9% | –
4 | COc1ccc(CNC(=O)CCCc2nnc3n(C(C)C)c(=O)c4sccc4n23)cc1 | inactive: 4.31% | –
5 | CC(C)Oc1ccc(C(=O)N(Cc2ccc(N(C)C)cc2)Cc2ccco2)cc1 | inactive: -9.6% | –
6 | Cc1c(C)n(Cc2ccccc2)c2ccc(C(=O)N3CCN(c4ccccc4)CC3)cc12 | inactive: -0.246% | –
7 | CCN(CC)S(=O)(=O)c1ccc2c(c1)N(CC(=O)Nc1c(C)cccc1C)C(=O)C1CCCN21 (stereo not given) | inactive: 7.75% | –
8 | CCOC(=O)c1oc2c(c1C)-c1nn(Cc3cccc(Cl)c3)cc1CC2 | inactive: -13.2% | –
9 | COc1cc(NC(=O)CN2CCCN(Cc3cccc(F)c3)S2(=O)=O)cc(OC)c1 | inactive: -0.551% | –
10 | CCOC(=O)c1c(C)oc2nc(C)nc(NCCc3ccc(C)cc3)c12 | inactive: 3.9% | –
11 | CCOc1ccc(NC(=O)CSc2oc(-c3ccco3)nc2S(=O)(=O)c2ccccc2)cc1 | inactive: -0.6% | –
12 | Cc1ccc(NC(=O)c2oc3ccc(S(=O)(=O)N(C)C4CCCCC4)cc3c2C)c(C)c1 | inactive: -12.6% | –
13 | CCCNC(=O)c1cc2n(n1)CCCN(Cc1ccc(C)cc1)C2=O | inactive: 7.17% | –
14 | Cc1ccc(CN2C(=O)c3ccccc3Sc3ccc(C(=O)N4CCOCC4)cc32)cc1 | inactive: 11.2% | –
15 | CCOc1ccc(-c2cc(C(=O)NCCc3ccc(C)cc3)c3ccccc3n2)cc1 | inactive: 20.2% | –
16 | Cc1cccc(-n2c3nc(=O)[nH]c(=O)c-3cc3ccc(Cl)cc32)c1C | inactive: -3.38% | –
17 | O=C(CSc1nc2c([nH]c3ccccc32)c(=O)n1-c1ccccc1)N1CCCCC1 | inactive: 3.85% | –
18 | CC(C)CCNC(=O)c1cc(-c2cccnc2)nc2ccc(S(=O)(=O)N3CCC(C)CC3)cc12 | inactive: 1.41% | –
19 | COc1ccc(NC(=O)c2nnn(-c3ccc(C(C)C)cc3)c2C)c(OC)c1 | inactive: 3.17% | –
20 | COc1ccc(OC)c(-c2noc(N3CCN(c4cccc(C(F)(F)F)c4)CC3)n2)c1 | inactive: 11.6% | –
21 | COc1cc(OC)c(NC(=O)c2ccc(-n3cnc4cccnc43)cc2)cc1Cl | inactive: 15.4% | –
22 | CCOC(=O)CC(NC(=O)Cn1nnc(-c2ccc(Cl)cc2)n1)c1ccc(OC)cc1 (stereo not given) | inactive: 18.9% | –
23 | Cn1c(CN2CCOCC2)nc2cc(NC(=O)c3ccccc3[N+](=O)[O-])ccc21 | inactive: 0.437% | –
24 | CCOc1cccc2sc(N3CCN(C(=O)c4ccco4)CC3)nc12 | inactive: -0.24% | –

Row | SMILES | activity change, negative = cytotoxicity | Potency
25 | CC1=C(c2ccc(C(C)C)cc2)S(=O)(=O)N=C1N1CCC(C(=O)NCc2ccc(C)o2)CC1 | inactive: -4.23% | –
26 | O=C(NC1CCCCC1)c1ccc(CSc2nc3cccnc3n2Cc2ccccc2)cc1 | inactive: -25.3% | –
27 | Cc1nc2c(-c3ccc(F)cc3)c(C)nn2c(C)c1CCC(=O)NCc1ccc(F)cc1 | inactive: 4.22% | –
28 | CCOC(=O)c1c(C)[nH]c(CCC(=O)NCc2ccc(OC)cc2OC)c1C | inactive: 7.47% | –
29 | Cc1c(CC(=O)NCCc2ccccc2)c(=O)oc2c(C)c3occ(C(C)(C)C)c3cc12 | inactive: -9.88% | –
30 | CC(=O)c1cccc(NC(=O)Cn2ccn3nc(-c4ccccc4)cc3c2=O)c1 | inactive: 0.165% | –
31 | Cc1cc(Nc2cc(Cl)ccc2C)n2nc(-c3ccccc3)nc2n1 | inactive: 10.1% | –
32 | CCOC(=O)c1c(N)n(-c2ccc(OCC)cc2)c2nc3ccccc3nc12 | inactive: 25.1% | –
33 | Cc1ccc(CN(Cc2cccn2-c2nnc(N3CCCC3=O)s2)C(=O)Nc2ccccc2Cl)cc1 | inactive: -7.26% | –
34 | O=C(COc1ccccc1-c1nc(-c2ccccc2)no1)Nc1ccc([N+](=O)[O-])cc1 | inactive: 9.53% | –
35 | CC1=C(C(=O)Nc2ccccc2Br)C2(CCC(C)CC2)OC1=O (stereo not given) | inactive: 7.1% | –
36 | CCCCC12CN3CC(C)(CN(C1)C3c1ccc(OCc3ccccc3)cc1)C2=O (stereo not given) | inactive: 5.42% | –
37 | Cc1ccc(-c2nc3sc(CCNC(=O)c4ccc(F)c(F)c4)c(C)n3n2)cc1 | inactive: -12.3% | –
38 | Cc1ccc(CNC(=O)CCCCCn2c(=O)c3sccc3n(CC(=O)N3CCCCC3C)c2=O)cc1 (stereo not given) | inactive: 0.505% | –
39 | O=C(CCCCCn1c(=O)[nH]c2ccccc2c1=O)N1CCN(c2cccc(C(F)(F)F)c2)CC1 | inactive: -22.4% | –
40 | CCCn1cc(S(=O)(=O)c2ccc(C)c(C)c2)c(=O)c2cc(F)c(N3CCCCC3)cc21 | inactive: 3.25% | –
41 | CC(C)NC(=O)c1ccc(CSc2nc3ccncc3n2Cc2cccc(F)c2)cc1 | inactive: 18.7% | –
42 | FC(F)(F)c1cccc(Nc2nc3nonc3nc2Nc2ccc(Cl)cc2)c1 | – | active: 8.91 µM
43 | COc1ccc(C)cc1NC(=O)CN(C)S(=O)(=O)c1ccc2c(c1)c(=O)n(C)c(=O)n2C | inactive: 4.81% | –
44 | Cc1ccccc1NC(=O)c1c(C)oc2ccc(O)c(CN3CCCCCC3)c12 | inactive: -3.61% | –
45 | Cc1nc(-c2ccc(S(=O)(=O)N3CCN(c4ccccc4F)CC3)cc2)co1 | inactive: -0.513% | –
46 | Cc1ccccc1NC(=O)c1sc2nc(-c3cc4ccccc4oc3=O)[nH]c(=O)c2c1C | inactive: 4.13% | –
47 | CCN(C(=O)Cn1c(C(=O)OC)cc2sccc21)c1cccc(C)c1 | inactive: -3.02% | –
48 | COc1ccccc1N1CCN(C(=O)c2nn(C)c3c2CS(=O)(=O)c2ccccc2-3)CC1 | inactive: -0.745% | –

Row | SMILES | activity change, negative = cytotoxicity | Potency
49 | CC(C)c1ccc(C2CC(=O)N3CN(C4CCCCC4)CSC3=C2C#N)cc1 (stereo not given) | inactive: 0.287% | –
50 | Cn1ccc2cc(S(=O)(=O)N3CCCC(C(=O)NCc4ccccc4F)C3)ccc21 (stereo not given) | inactive: -1.54% | –
51 | Cc1ccccc1-c1nc(CNC(=O)NC2CCCCC2)c(C)o1 | inactive: 2.5% | –
52 | CC1=C(C(=O)Nc2ccccc2)C(c2ccc(Br)cc2)n2nc(CCCO)nc2N1 (stereo not given) | inactive: 16.3% | –
53 | COc1ccc(-n2ncc3c2ncn2nc(-c4ccc(OC)c(OC)c4)nc32)cc1 | inactive: -1.58% | –
54 | Cn1cc(S(=O)(=O)N2CCCC2)cc1C(=O)Nc1ccc(F)cc1F | inactive: 17.8% | –
55 | CCOC(=O)c1ccc(NC(=O)Cc2noc3ccc(C)cc23)cc1 | inactive: 1.27% | –
56 | COc1cccc(CNC(=O)CN2C(=O)COc3ccc(S(=O)(=O)N4CCCCC4)cc32)c1 | inactive: 5.75% | –
57 | CCN(CC)c1ccc(CN(C(=O)c2cc(=O)c3ccccc3o2)C2CCS(=O)(=O)C2)cc1 (stereo not given) | inactive: 5.03% | –
58 | COc1ccc(-c2cc(OC(=O)c3cccc(Cl)c3)c3c(C)oc(C)c3c(=O)c2)cc1OC | inactive: -17.7% | –
59 | COc1ccc(CN(Cc2ccco2)C(=O)COc2ccccc2Cl)cc1 | inactive: -0.0524% | –
60 | Cc1cc(C)c(S(=O)(=O)NCC2CCC(C(=O)NCCc3ccccc3)CC2)c(C)c1 (stereo not given) | inactive: -2.15% | –
61 | COC(=O)c1ccccc1NC(=O)c1ccc2c(c1)CCN2S(=O)(=O)c1ccc(Cl)cc1 | inactive: -3.13% | –
62 | Cc1ccc(C)c(Cn2c3ccccc3c3cnn(CC(=O)NC4CCCCCC4)c(=O)c32)c1 | inactive: 16.6% | –
63 | Cc1c(Cl)cccc1NC(=O)CSc1nc(=O)[nH]c2c1CCC2 | inactive: -8.26% | –
64 | Cc1c2cnn(-c3ccccc3)c(=O)c2c(C)n1CCCC(=O)Nc1cccc(F)c1 | inactive: -9.71% | –
65 | O=c1n(Cc2ccccc2)nc2n1-c1cc(Cl)ccc1OC2 | inactive: 10.7% | –
66 | COc1cc(OC)cc(C(=O)N2CCN(C(=O)COc3ccc(C)cc3)CC2)c1 | inactive: 3.35% | –
67 | COc1cccc(-n2c(SCC(=O)Nc3ccc4c(c3)OCO4)nc3c([nH]c4ccccc43)c2=O)c1 | inactive: 16.4% | –
68 | CCN(CC)c1ccc(NC(=O)Cn2nc3c(cc2=O)CCCC3)c(C)c1 | inactive: -6.97% | –
69 | CCc1c(C)sc(NC(=O)c2cc3nc(-c4ccc(OC)cc4)cc(C(F)(F)F)n3n2)c1C(=O)OC | inactive: 5.91% | –
70 | Cc1ccccc1NC(=O)CSc1nc(-c2cccs2)nc2cc(=O)[nH]n12 | inactive: 2.69% | –
71 | COc1ccc(-n2nc(C(=O)Nc3cc(C)c(Cl)cc3OC)c3c4ccccc4n(C)c3c2=O)cc1 | inactive: -8.92% | –
72 | CC(NS(=O)(=O)c1ccc2c(c1)CCN2C(=O)CCCC(=O)O)c1ccccc1 (stereo not given) | inactive: -1.8% | –

Row | SMILES | activity change, negative = cytotoxicity | Potency
73 | O=C(Cn1cc(SCc2ccc(Cl)cc2)c2ccccc21)N1CCOCC1 | inactive: 8.41% | –
74 | CCCc1nn2c(=O)cc(COC(=O)c3cccc(NC(=O)c4ccc(OCC)cc4)c3)nc2s1 | inactive: -12% | –
75 | COc1cc(C2c3c(-c4cc(C)ccc4O)n[nH]c3C(=O)N2Cc2ccco2)cc(OC)c1OC (stereo not given) | inactive: 18.8% | –
76 | COC(=O)CSc1nc2sc3c(c2c(=O)n1-c1ccccc1)C(C)CCC3 (stereo not given) | inactive: 4.61% | –
77 | CC(C)Oc1ccc(C(=O)Nc2nnc3n2CCS3)cc1 | inactive: -6.44% | –
78 | COc1ccc(NC(=O)c2cc(S(=O)(=O)N3CCCC(C)C3)cn2C)c(OC)c1 (stereo not given) | inactive: 6.08% | –
79 | COc1ccc(NC(=O)CSc2nc3ccccc3n2CC(=O)N(C)C2CCCCC2)cc1 | inactive: -12.8% | –
80 | CCOC(=O)c1cc(-c2ccc(F)cc2)n(CCC(=O)Nc2cc(OC)cc(OC)c2)c1C | inactive: -0.323% | –
81 | O=C(Nc1ccccc1C(F)(F)F)C1CCN(S(=O)(=O)c2ccccc2)CC1 | inactive: -2.42% | –
82 | O=C(CSc1nc2ncccc2o1)Nc1ccc(Cl)cc1F | inactive: -4.1% | –
83 | Cn1c(=O)c2c(nc(N3CCOCC3)n2Cc2ccccc2F)n(C)c1=O | inactive: 8.53% | –
84 | Cc1ccc(-c2nc3cccc(C)n3c2Nc2ccc3c(c2)OCO3)o1 | inactive: -19.5% | –
85 | CCOc1ccccc1C(=O)N1CCc2cc(OC)c(OC)cc2C1COc1ccc(OC)cc1 (stereo not given) | inactive: 11.2% | –
86 | COc1cccc(CNC(=O)Cn2ncn3c(cc4ccccc43)c2=O)c1 | inactive: 5.65% | –
87 | Cc1nn(-c2ccccc2)c(OC(=O)c2ccc(Cl)cc2)c1S(=O)(=O)c1ccccc1 | inactive: 12.4% | –
88 | COc1ccc(OC)c(NC(=O)c2cc3cccc(OC)c3oc2=O)c1 | inactive: -2.34% | –
89 | CCCNC(=O)c1ccc(Cn2c(SCC(N)=O)nc3ccccc3c2=O)cc1 | inactive: 17.8% | –
90 | O=C(c1cc(-c2ccc(Br)cc2)n[nH]1)N1CCN(S(=O)(=O)c2ccc(Cl)s2)CC1 | inactive: 3.1% | –
91 | O=C(CSc1nc(=O)n(CCN2CCOCC2)c2c1CCC2)Nc1ccc(F)cc1F | inactive: 4.89% | –
92 | COCCCn1c(SCC(=O)Nc2ccc(OC)cc2)nc2c(sc3ccccc32)c1=O | inactive: 10.7% | –
93 | CC(C)CC(=O)Nc1ccc2nc(SCC(=O)N3CCOCC3)sc2c1 | inactive: 0.537% | –
94 | COc1ccc(CNS(=O)(=O)c2cc3c(cc2Cl)NC(=O)CO3)cc1 | inactive: 0.137% | –
95 | CCC(=O)Oc1c(Sc2ccc(C)cc2)c(C)nn1-c1ccccc1 | inactive: -2.26% | –
